# Measurements from paper PMC4336329 (PLoS ONE, 2015).
# About 2,200 (0.71%) of roughly 310,000 compounds showed an effect of 50% or more. Effects have a minus sign here. The list shows a part of the results.
# Target: human ether-à-go-go-related gene (hERG) potassium channel (human, UniProt Q12809)
# Test: primary screen, population patch clamp on CHO cells stably expressing hERG
# human ether-à-go-go-related gene (hERG) potassium channel, sequence (Q12809 whole entry, looked up): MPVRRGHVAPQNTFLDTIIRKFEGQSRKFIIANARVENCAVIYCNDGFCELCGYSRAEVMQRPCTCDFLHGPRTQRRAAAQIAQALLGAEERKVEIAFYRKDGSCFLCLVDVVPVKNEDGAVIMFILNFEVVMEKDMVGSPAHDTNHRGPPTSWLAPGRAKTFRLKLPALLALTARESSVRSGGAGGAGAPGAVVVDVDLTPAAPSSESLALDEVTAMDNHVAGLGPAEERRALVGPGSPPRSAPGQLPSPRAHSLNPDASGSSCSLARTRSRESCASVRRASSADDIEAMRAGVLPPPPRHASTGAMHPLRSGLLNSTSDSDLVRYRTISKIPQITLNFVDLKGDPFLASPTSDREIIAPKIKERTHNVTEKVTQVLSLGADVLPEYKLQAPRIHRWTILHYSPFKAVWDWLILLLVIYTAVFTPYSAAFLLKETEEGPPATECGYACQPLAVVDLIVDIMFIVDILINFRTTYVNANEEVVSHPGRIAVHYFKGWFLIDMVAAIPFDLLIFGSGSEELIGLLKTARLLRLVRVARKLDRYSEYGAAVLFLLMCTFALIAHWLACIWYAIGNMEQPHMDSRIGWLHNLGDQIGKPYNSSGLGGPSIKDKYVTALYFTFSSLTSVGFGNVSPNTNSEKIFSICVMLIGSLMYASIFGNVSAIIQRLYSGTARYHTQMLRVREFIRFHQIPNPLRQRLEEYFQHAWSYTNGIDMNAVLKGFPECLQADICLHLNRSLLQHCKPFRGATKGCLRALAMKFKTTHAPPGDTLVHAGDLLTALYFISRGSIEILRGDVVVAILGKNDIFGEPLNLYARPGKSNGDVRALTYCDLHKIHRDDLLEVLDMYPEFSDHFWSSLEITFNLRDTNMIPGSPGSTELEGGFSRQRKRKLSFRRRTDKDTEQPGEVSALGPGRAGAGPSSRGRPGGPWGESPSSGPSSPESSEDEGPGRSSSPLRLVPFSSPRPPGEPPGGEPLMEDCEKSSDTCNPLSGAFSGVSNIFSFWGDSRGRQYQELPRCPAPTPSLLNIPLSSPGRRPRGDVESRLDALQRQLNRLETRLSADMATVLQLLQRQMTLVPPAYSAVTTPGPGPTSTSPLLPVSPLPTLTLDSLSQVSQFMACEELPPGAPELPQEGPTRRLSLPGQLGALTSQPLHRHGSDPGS
row,Structure (SMILES),"hERG current change (%, negative = inhibition) at 1uM"
1,CCN(CC)S(=O)(=O)c1ccc(N2CCN(CCO)CC2)nc1,6.5%
2,CCOc1ccc(N/C(C)=C/C(=O)c2ccc(C)o2)cc1,10.1%
3,CNC(=O)c1cc(C(=O)c2c(Cl)cccc2Cl)c[nH]1,7.41%
4,O=c1c(Cc2ccc(Cl)cc2Cl)c(O)ccn1Cc1ccc(Cl)cc1,9.41%
5,NC1=NC[C@H](Cc2ccc(O)cc2)N1CCC12CC3CC(CC(C3)C1)C2,18%
6,O=C(CSc1ccc2nnc(-c3ccccn3)n2n1)Nc1ccc2c(c1)OCCO2,-2.96%
7,CCOc1ccc(NC(=O)N2CCN(S(C)(=O)=O)CC2)cc1,10.2%
8,O=C(O)c1cccc(N2C(=O)C3C4C=CC(C4=C(c4ccccc4)c4ccccc4)C3C2=O)c1 (stereo not shown),9.57%
9,CCO[C@H]1OC(C(=O)NCc2ccccc2)=C[C@@H](c2coc3ccccc3c2=O)[C@@H]1CCCO,0.438%
10,COc1cc(S(=O)(=O)NCc2ccncc2)c(OC)cc1C,6.43%
11,CC(Cc1ccsc1)NCc1cn[nH]c1-c1ccc(F)cc1F (stereo not shown),-9.31%
12,O=C(CN1C(=O)c2ccccc2S1(=O)=O)Nc1ncccn1,1.63%
13,Cc1nn(C)cc1S(=O)(=O)Nc1ccc(C(F)(F)F)cc1,19.7%
14,Cc1sc2nc(SCC(=O)NCc3ccco3)[nH]c(=O)c2c1C,17.4%
15,COc1cc(/C=C2\OC(=O)c3c(OC)cccc32)ccc1O,14.9%
16,COC(=O)c1ccc(-c2noc(CN(Cc3nccn3C)C(C)C)n2)cc1,5.78%
17,COC(=O)CSc1ncnc2c1cnn2Cc1ccccc1,7.3%
18,Cc1cc(C2CCCCC2)n(O)c(=O)c1.NCCO,11.1%
19,S=C(Nc1ccccc1)N1N=C(c2cccs2)CC1c1cccs1 (stereo not shown),21.7%
20,Cc1[nH][nH]c(=O)c1C(c1ccc(F)cc1)c1c(C)[nH][nH]c1=O,8.58%
21,CCOc1ccc(NC(=O)CN(c2ccc([N+](=O)[O-])cc2)S(=O)(=O)c2ccccc2)cc1,4%
22,O=C(NC1CCN(S(=O)(=O)c2ccc(Cl)cc2)CC1)c1cccnc1,15.9%
23,O=C(NCc1cccnc1)C12CC3CC(CC(C3)C1)C2,8.7%

row,Structure (SMILES),"hERG current change (%, negative = inhibition) at 1uM"
1,Cn1c(CCN2CCN(c3ccccn3)CC2)nc2cc(NS(=O)(=O)c3ccc(Cl)cc3)ccc21,-69.2%
2,COc1ccc(CCNC(=O)COC(=O)/C=C/c2ccc(OCC#N)c(OC)c2)cc1OC,3.42%
3,CCCC(C(=O)O)N1C(=O)/C(=C/c2cccn2C)SC1=S (stereo not shown),15.3%
4,Cc1ccc(NC(=O)Cc2nc(CSc3nnc(-c4ccc5c(c4)OCO5)o3)cs2)cc1,4.54%
5,CC1Cc2ccccc2N1NC(=O)c1ccc(Cl)c(S(N)(=O)=O)c1 (stereo not shown),6.92%
6,Cc1cc(NC(=O)Cn2nnc(-c3ccccc3N)n2)no1,6.84%
7,O=C1NC(c2ccncc2)Nc2sc3c(c21)CCCC3 (stereo not shown),13.8%
8,CCc1ccc(NC(=O)c2cccc(C(=O)Nc3ccc(CC)cc3)n2)cc1,7.07%
9,Cc1nnc(SCC(=O)c2cc(C)n(-c3c(C)n(C)n(-c4ccccc4)c3=O)c2C)s1,9.06%
10,COc1cccc(CN2CCN(Cc3ccc4c(c3)OCCO4)CC2CCO)c1 (stereo not shown),7.12%
11,CCc1ccc(C(C)NC(=O)/C=C/c2ccc(Br)cc2)cc1 (stereo not shown),-17.3%
12,CCOC(=O)C1(CC)CC(CSc2nc3ccccc3[nH]2)OC1=O.Cl (stereo not shown),11.7%
13,CCOc1ccc2[nH]cc(C(=O)NCc3ccc(F)cc3)c(=O)c2c1,15.6%
14,O=C(COC(=O)c1cccc2ccccc12)Nc1cccnc1Cl,3.23%
15,CC(=O)c1c(C)n(CCO)c2ccc(O)cc12,-1.68%
16,NS(=O)(=O)c1ccc(Cc2ncc(C(F)(F)F)cc2Cl)s1,10.8%
17,CC1(C(=O)NC2CCCCC2)CCC(=O)N1Cc1cccs1 (stereo not shown),5.72%
18,CCCCn1c(CCC(=O)O)nc2c1c(=O)[nH]c(=O)n2CCC,-4.72%
19,COCCNC(=O)C1c2cc(OC)c(OC)cc2C(=O)N(C)C1c1cccnc1 (stereo not shown),5.43%
20,CC[N+](CC)(CC)CCCCCCCCCC[N+](CC)(CC)CC.[Br-],10.3%
21,CSc1nnc(CNS(=O)(=O)c2ccc(Br)cc2)n1C,8.2%
22,CN1CCN(C(=S)Nc2ccc(Cl)c(Cl)c2)CC1,-4.89%
23,CC(Oc1ccc(Cl)cc1Cl)C(=O)Nc1cccnc1 (stereo not shown),1.91%

row,Structure (SMILES),"hERG current change (%, negative = inhibition) at 1uM"
1,COC(=O)c1cc(Br)c(=O)n(CCC2=CCCCC2)c1,4.57%
2,CC(C)(C)NC(=O)c1ccc2c(c1)N(CC(=O)NC1CCCC1)C(=O)C(C)(C)O2,12.6%
3,Cc1ccc(S(=O)(=O)CC(c2ccccc2)N2CCOCC2)cc1 (stereo not shown),6.98%
4,CCCN(C(=O)c1cc(CC)c(C)s1)c1c(N)n(Cc2ccccc2)c(=O)[nH]c1=O,16.1%
5,Cc1c(Cc2ccccc2)sc(NC(=O)Cc2ccccc2)c1C(N)=O,13.5%
6,CC(C)c1cc(C(=O)NC2CCCc3c2cnn3-c2ccccc2F)no1 (stereo not shown),3.72%
7,CCOC(=O)C1CCN(C(=O)CN(c2ccc(OC)cc2)S(=O)(=O)c2c(C)nn(C)c2C)CC1,13.1%
8,CN1CCN(S(=O)(=O)c2ccc(N(C)CC(=O)Nc3ccc(F)cc3)nc2)CC1,8.96%
9,CN1C(=O)C(CC(=O)O)S/C1=N\N=C\c1ccc(O)cc1O (stereo not shown),3.52%
10,CCc1ccc(NC(=O)C/C(C)=N/NC(=O)COc2ccc(C)cc2Br)cc1,-5.13%
11,CN1CCN(CC(O)COC(c2ccc(Cl)cc2)c2ccc(Cl)cc2)CC1.Cl (stereo not shown),-47.8%
12,CCOC(=O)N1CCN(C(=O)c2cccc(-n3c(=S)[nH]c4cc(Cl)ccc4c3=O)c2)CC1,4.67%
13,Cc1cccc(-n2c(-c3csc(C)c3C)n[nH]c2=S)c1,10.8%
14,COc1ccc(NC(=O)COC(=O)CNC(=O)c2cccs2)cc1Cl,2.52%
15,Cl.OC(c1ccccc1)(c1ccccc1)C1CN2CCC1CC2 (stereo not shown),-1.7%
16,CCOc1cc(C(=O)OCC(=O)Nc2cc(C)on2)cc(OCC)c1OCC,6.73%
17,O=C(Nc1ccccc1)N1CCC(c2nc(-c3ccc(S(=O)(=O)N4CCOCC4)cc3)no2)CC1,-4.93%
18,CCn1c(=O)c(=O)[nH]c2cc(C(=O)N(C)Cc3ccc(OC)c(F)c3)ccc21,12.3%
19,OC(CN1CCN(c2ccccc2F)CC1)c1ccc(F)cc1 (stereo not shown),0.865%
20,Cc1cccc(C(=O)NC(=S)NNC(=O)c2cccs2)c1,10.4%
21,CCCN(CCC)S(=O)(=O)c1ccc(C(=O)N2CCCc3ccccc32)cc1,8.53%
22,O=C(NC1CC1)c1cc2cc3ccccc3nc2s1,5.21%
23,O=C(Nc1ccc(Cl)cc1)c1ccncc1,11.3%

row,Structure (SMILES),"hERG current change (%, negative = inhibition) at 1uM"
1,CCc1cc(C(=O)COc2ccc(F)cc2)c(O)cc1O,5.76%
2,CC1(C)CN(c2ccccc2)N(Cc2ccc(F)cc2)C1=O,-4.34%
3,Cc1cccc(OCCCCCNCCO)c1,8.25%
4,CCOC(=O)Nc1nn(-c2ccc(C)cc2)c(=O)c(C#N)c1C,-0.101%
5,Cc1ccccc1Nc1nc(N)nc(CSc2nc3ccccc3c(=O)n2C)n1,9.44%
6,O=C(NNC(=O)c1ccccc1[N+](=O)[O-])c1ccccn1,3.32%
7,CN(C)/C=N/c1ncc(C(=O)c2ccc3ccccc3c2)s1,-2.51%
8,Cc1cc(/C=C(/C#N)c2nc3ccccc3[nH]2)c(C)n1-c1cccc([N+](=O)[O-])c1,16%
9,Cc1ccc2c(c1)C1CN(C)CCC1N2C(=O)Cn1nnc(-c2ccccc2F)n1 (stereo not shown),-9.36%
10,N#CC1(NC(=O)COC(=O)Cc2n[nH]c(=O)c3ccccc23)CCCCC1,8.96%
11,CCCc1cc(=O)[nH]c(SCC(=O)c2cc(C)n(CCC)c2C)n1,12.2%
12,CCCNc1nc2ccccc2c(=O)[nH]1,13.9%
13,NC(=O)NC(Cc1ccccc1)C(=O)NCC1(N2CCCCC2)CCCCC1 (stereo not shown),10.6%
14,C/C(=N/NC(=O)CNC(=O)c1cccs1)c1ccco1,11%
15,COc1ccc(CNC(=O)C2=CC(c3ccc(OC)cc3)=NS(=O)(=O)N2C)cc1,-18.9%
16,O=CN1CCN(C(=O)CN2C(=O)c3ccccc3C2=O)CC1,4.48%
17,NC(=O)NC(=O)COC(=O)/C=C/c1cccc(Br)c1,-3.47%
18,CCCCCCCCCCCCCCCC(=O)OC(CC(=O)O)C[N+](C)(C)C.[Cl-] (stereo not shown),-8.25%
19,O=C(CCOc1ccccc1)Nc1ccccc1,11.3%
20,Cc1ccc2[nH]c(=O)c3cc(C(=O)NC(C)C)sc3c2c1,14.6%
21,COC(=O)NNC(=O)c1cccc(C)c1,-0.0022%
22,COc1ccc(-n2cnc3scc(-c4ccccc4)c3c2=O)cc1,12%
